Experimental data taken from the supplement of paper PMC12217912.
Some of the results follow. Sequences were assembled here from the parent chain. Inactive controls read about 0.05.

B1: TEV protease; numbered along this chain (parent)
chain: MGESLFKGPRDYNPISSSICHLTNESDGHTTSLYGIGFGPFIITNKHLFRRNNGTLVVQSLHGVFKVKDTTTLQQHLVDGRDMIIIRMPKDFPPFPQKLKFREPQREERICLVTTNFQTKSMSSMVSDTSCTFPSGDGIFWKHWIQTKDGQCGSPLVSTRDGFIVGIHSASNFTNTNNYFTSVPKNFMELLTNQEAQQWVSGWRLNADSVLWGGHKVFMVKPEEPFQPVKEATQL

Variants of: B1
Test: raw area under fraction-flipped curve 0-4 h after induction (AUC4h, not background-subtracted), DNA-recorder readout of cleavage of the substrate (dimensionless); higher = more cleavage of the substrate by the protease variant
Details: temperature: 34 °C; time window: 0-4 h after rhamnose induction
Experimental: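 In vivo DNA recorder in E. coli TOP10(DE3) ΔrhaA at 34 °C. Each TEVp single-site mutant (parent TEVp 0) is paired with a single-site variant of the 7-mer TEVs (canonical ENLYFQ|S). The substrate sits between flexible linkers in a Bxb1-sfGFP-TEVs-SsrA fusion, so cleavage stabilises Bxb1 and speeds flipping of a recombination array, read by NGS. The value is the raw area under the fraction-flipped curve over 0-4 h after rhamnose induction (AUC4h), with ≥20 reads per time point. It is not background-subtracted; inactive controls average about 0.047.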
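Note: Bxb1 expression induced with 0.2% (w/v) L-rhamnose at OD600 near 0.5, cultures sampled hourly, flipped fraction per protease–substrate barcode pair counted by paired-end Illumina sequencing.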

Variant	area with substrate ENLYFAS	area with substrate ENLYFMS	area with substrate ENLYFRS	area with substrate ENLYFTS	area with substrate ENLYFCS	area with substrate ENLYFDS	area with substrate ENLYFFS	area with substrate ENLYFGS	area with substrate ENLYFHS	area with substrate ENLYFIS
G2A	0.0519	0.0565	0.0571	0.084						
G2F	0.0484	0.0657			0.056	0.0799	0.0816	0.0464	0.101	0.0488
G2H	0.0689	0.0686	0.0798				0.0776			
G2K	0.0514			0.0562	0.0587	0.0563	0.068			0.0529
G2T	0.0407	0.0614	0.0757	0.0583	0.0654	0.0817				
G2Y	0.0555	0.09			0.0518		0.0775	0.0502	0.0648	
E3V	0.0275			0.0642			0.0572	0.0581	0.0797	0.0824
E3W	0.0576						0.0692		0.0691	0.0555
L5H	0.0722	0.0618					0.0769			0.0642
K7H	0.0604	0.0922	0.0542		0.0606		0.0674	0.0593		0.0573
K7V	0.0402		0.0628	0.0599	0.0565		0.0621			0.0613
K7W	0.0508		0.0521							
K7Y	0.0567								0.0689	0.0607
S18G	0.0498		0.0687		0.0609	0.0596	0.0981	0.0447	0.0626	0.0583
L22M	0.0318	0.0653		0.0436	0.0615	0.0544	0.0338		0.0554	0.0543
D27E	0.0772		0.0715	0.0315	0.0491					0.0573
G28Y	0.0639		0.04	0.0608	0.0493					0.0538

Variant	area with substrate ENLYFAS	area with substrate ENLYFMS	area with substrate ENLYFRS	area with substrate ENLYFTS	area with substrate ENLYFCS	area with substrate ENLYFDS	area with substrate ENLYFFS	area with substrate ENLYFGS	area with substrate ENLYFHS	area with substrate ENLYFIS
H29G	0.0603	0.0623		0.0824						0.0679
T30D	0.0865	0.0743	0.0644	0.0602	0.0545		0.0627		0.0562	
T31I	0.0592	0.0584	0.079	0.0588	0.0711			0.0408	0.0614	0.0605
L33D	0.0656	0.0619	0.0561	0.0711		0.0673	0.0583		0.0599	0.0555
G35A	0.0487						0.0553	0.0576	0.0522	
G35T	0.0452	0.043	0.0468	0.0571	0.0144		0.0489			0.0395
G35V	0.0419			0.0344			0.0503			0.0366
T44M	0.0402			0.0438	0.0483	0.0576	0.0565		0.0369	0.0454
R50N	0.0531									
R50W	0.0676	0.0721	0.0538	0.0406		0.0626	0.042	0.0617		0.065
R50Y	0.0524	0.0873		0.0365	0.0658		0.049	0.0807	0.0653	0.0633
V57Q	0.0453	0.0603			0.0573		0.0628			0.0484
V58G	0.0387	0.0439						0.0549		
V58S	0.0498	0.0561				0.055		0.0602		0.0543
Q59H	0.0402	0.069	0.0508		0.0544	0.0762	0.0751			0.0415
Q59N	0.0632		0.037	0.0572	0.0543		0.0709		0.0702	0.0627
L61T	0.0729	0.0674							0.0717	0.0716

Same assay, conditions: temperature: 34 °C; time window: 0-4 h after rhamnose induction

Variant	area with substrate ENLYFPS	area with substrate ENLYFVS	area with substrate ENLYFES	area with substrate ENLYFKS	area with substrate ENLYFLS	area with substrate ENLYFNS	area with substrate ENLYFWS	area with substrate ENLYFYS	area with substrate ENLYFSS
G2F	0.0474	0.0459							
G2H			0.0594	0.054	0.048				
G2K	0.0584		0.0681	0.0559	0.062	0.0666			
G2T	0.0677						0.0506		
G2Y			0.0868	0.0577	0.0611			0.0622	
E3V		0.0653	0.0703	0.0675	0.053		0.0344	0.061	0.0666
E3W	0.0809		0.0733	0.0645			0.0519	0.0562	0.0443
L5H	0.0614		0.0442	0.072			0.0479		0.0656
K7V			0.0818			0.0587	0.0616		0.0598
K7W		0.06		0.0635			0.0603		
K7Y			0.0776		0.0565	0.0634	0.0434		
S18G	0.0554	0.0513	0.0443	0.0453		0.0559	0.0608	0.0449	
L22M	0.0545	0.0502	0.0712	0.0626		0.0694	0.0624		0.0559
D27E	0.0427		0.0669	0.0475				0.0549	0.0673
G28Y	0.0493	0.0531	0.0938	0.0469	0.0634	0.0694		0.0501	
H29G	0.0596							0.0598	

Variant	area with substrate ENLYFPS	area with substrate ENLYFVS	area with substrate ENLYFES	area with substrate ENLYFKS	area with substrate ENLYFLS	area with substrate ENLYFNS	area with substrate ENLYFWS	area with substrate ENLYFYS	area with substrate ENLYFSS
T30D	0.0493		0.054	0.0407					
T31I			0.0743			0.0675	0.0715	0.0525	
L33D	0.057	0.0494	0.0787	0.0737		0.0486	0.0523	0.0545	0.0497
G35A	0.0319	0.0311	0.0541		0.0712				
G35T	0.0406	0.0443		0.058				0.0306	
G35V			0.0374	0.038		0.05			
T44M	0.0581		0.0521	0.0657		0.0551	0.0459	0.0651	0.0498
R50W	0.0622		0.0677			0.0602	0.0571	0.0621	
R50Y		0.0397		0.0711	0.055			0.0527	
V57Q			0.0669			0.0671	0.0247	0.055	0.0582
V58G								0.0409	
V58S		0.0274		0.0613	0.0458		0.0386		0.0542
Q59H	0.055	0.0454	0.0777		0.06	0.0612	0.0717	0.052	0.0669
Q59N			0.0596						
L61T	0.0665		0.0536	0.0816		0.0982		0.0589	
